Source: the supplement of paper PMC10127200
Most of the highest values are listed elsewhere, so they are rarer here than in the full data.

Assays:
Experiment in all cases: Euclidean distance of Cell Painting phenotypic profile (signed KS, 77 features) to DMSO centroid (dimensionless distance); higher = stronger phenotypic change vs DMSO (phenoactivity)
Conditions in all cases: 48 h; 5 or 10 uM (library dependent)
786-O = system: 786-O
In short: (§1)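 Five cancer lines and a healthy fibroblast line received library compounds at 10 or 5 uM (library-dependent, 0.1% DMSO final) for 48 h. Stained cells were imaged confocally at 20X (9 fields/well). Harmony extracted 77 features, each scored as a signed Kolmogorov-Smirnov statistic against same-plate vehicle wells. Profiles were plate-position corrected, correlation-weighted and replicate-averaged at the top dose. Phenoactivity is the Euclidean distance from each profile to the median vehicle profile.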

A549 = system: A549
In short: as §1

DU145 = system: DU145
In short: as §1

FB = system: FB
In short: as §1

HEPG2 = system: HEPG2
In short: as §1

OVCAR4 = system: OVCAR4
In short: as §1

SMILES | Euclidean distance (786-O) | Euclidean distance (A549) | Euclidean distance (DU145) | Euclidean distance (FB) | Euclidean distance (HEPG2) | Euclidean distance (OVCAR4)
CCC(C)C(C(=O)OCC[N+](C)(CC)CC)c1ccccc1 (stereo not given) [Valethamate Bromide] | 1.13 | 0.876 | 0.854 | 1.06 | 0.932 | 2.44
CN1C2CCC1CC(OC(=O)C(O)c1ccccc1)C2 (stereo not given) [Homatropine Bromide] | 1.09 | 1.04 | 0.903 | 0.778 | 0.624 | 1.34
Cc1ccc(C(=O)NCCCCCC(=O)Nc2ccccc2N)cc1 | 1.71 | 2.11 | 2.07 | 2.99 | 2.54 | 2.04
Cc1ccccc1-n1c(Cn2nc(-c3cccc(O)c3)c3c(N)ncnc32)nc2cccc(C)c2c1=O | 0.964 | 0.952 | 0.96 | 1.61 | 1.17 | 2.15
CCOc1cc(NC(C)=O)ccc1C(=O)OC [Ethopabate] | 1.04 | 1.63 | 1.66 | 1.46 | 0.781 | 1.71
